# Some of the results follow. Most values come without repeats; read them as rough.
# System: G361
# Assay: cell count relative to DMSO control; melanoma cells; higher = more viable cells
# Conditions: library dose: standard library concentration; 72 h
# 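Also: cells treated in 1,536-well plates, then fixed and DAPI-stained, with nuclei counted from automated high-throughput microscope images.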
row,Compound,cell count [%]
1,"Cn1cc(/C=C2\C(=O)Nc3cccnc32)c2ccccc21 + CCCCCCCCCCCC1=C(O)C(=O)C=C(O)C1=O [Embelin] (first compound 2 µM, partner dose 6 µM)",66.8
2,"COc1ccc2c(c1)CCC1C2CCC2(C)C(NCCCCCCN3C(=O)C=CC3=O)CCC12 (centres undefined) + CCCCCCCCCCCC1=C(O)C(=O)C=C(O)C1=O [Embelin] (first compound 2 µM, partner dose 6 µM)",17.4
3,"COc1cc2ncnc(Nc3ccc(Oc4ccccc4)cc3)c2cc1OC + Cn1cc(/C=C2\C(=O)Nc3cccnc32)c2ccccc21 [GW441756] (first compound 10 µM, partner dose 2 µM)",47.7
4,"Cc1cc([N+](=O)[O-])ccc1NS(=O)(=O)c1cc(Cl)ccc1Cl + COc1cc(N2CCC(N3CCN(C)CC3)CC2)ccc1Nc1ncc(Cl)c(Nc2ccccc2S(=O)(=O)C(C)C)n1 [NVP-TAE684] (first compound 5 µM, partner dose 0.4 µM)",47.3
5,"N#Cc1c(O)c2c(-c3ccc(-c4ccccc4O)cc3)csc2[nH]c1=O + COc1cc(N2CCC(N3CCN(C)CC3)CC2)ccc1Nc1ncc(Cl)c(Nc2ccccc2S(=O)(=O)C(C)C)n1 [NVP-TAE684] (first compound 10 µM, partner dose 0.4 µM)",92.5
6,"O=S(=O)(c1ccccc1)N(CC(F)(F)F)c1ccc(C(O)(C(F)(F)F)C(F)(F)F)cc1 + Cc1cc([N+](=O)[O-])ccc1NS(=O)(=O)c1cc(Cl)ccc1Cl [FH535] (first compound 7 µM, partner dose 5 µM)",20.4
7,"COc1ccc(-c2ccc3c(N4CCOCC4)nc(N4C[C@@H](C)O[C@@H](C)C4)nc3n2)cc1CO + Oc1nc(-c2ccc(C(F)(F)F)cc2)nc2c1CSCC2 [XAV939] (first compound 0.1 µM, partner dose 10 µM)",75.3
8,"COc1ccc(-c2ccc3c(N4CCOCC4)nc(N4C[C@@H](C)O[C@@H](C)C4)nc3n2)cc1CO + O=C1NC(=O)/C(=C/c2ccc(-c3ccc(F)cc3O)o2)S1 [AS252424] (first compound 0.1 µM, partner dose 5 µM)",79.4
9,"COC(=O)c1sccc1S(=O)(=O)Nc1ccc(Nc2ccccc2)cc1OC + Cc1cc([N+](=O)[O-])ccc1NS(=O)(=O)c1cc(Cl)ccc1Cl [FH535] (first compound 5 µM, partner dose 5 µM)",53.3
10,"CCN(CC)CCCCNc1ncc2cc(-c3cc(OC)cc(OC)c3)c(NC(=O)NC(C)(C)C)nc2n1 + Cn1cc(/C=C2\C(=O)Nc3cccnc32)c2ccccc21 [GW441756] (first compound 0.5 µM, partner dose 2 µM)",80.1
11,"CCN(CC)CCCCNc1ncc2cc(-c3cc(OC)cc(OC)c3)c(NC(=O)NC(C)(C)C)nc2n1 + c1cc(-c2cnn3cc(-c4ccc(OCCN5CCCCC5)cc4)cnc23)ccn1 [Dorsomorphin] (first compound 0.5 µM, partner dose 2 µM)",57.5
12,"CCN(CC)CCCCNc1ncc2cc(-c3cc(OC)cc(OC)c3)c(NC(=O)NC(C)(C)C)nc2n1 + O=C(O)C(=O)Nc1sc2c(c1C(=O)O)CCNC2 [TCS401] (first compound 0.5 µM, partner dose 8.33333 µM)",84.3
13,"COc1ccc(COc2ccc(Cc3cnc(N)nc3N)cc2OC)cc1 + O=S(=O)(c1ccccc1)N(CC(F)(F)F)c1ccc(C(O)(C(F)(F)F)C(F)(F)F)cc1 [T0901317] (first compound 5 µM, partner dose 7 µM)",70
14,"O=S(=O)(c1ccccc1)N(CC(F)(F)F)c1ccc(C(O)(C(F)(F)F)C(F)(F)F)cc1 + Cn1cc(/C=C2\C(=O)Nc3cccnc32)c2ccccc21 [GW441756] (first compound 7 µM, partner dose 2 µM)",63.9
15,"Cn1cc(/C=C2\C(=O)Nc3cccnc32)c2ccccc21 + CC(C)CCN1c2nc(Nc3cc(F)c(O)c(F)c3)ncc2N(C)C(=O)C1C [BID1870] (first compound 2 µM, partner dose 1 µM)",63.2
16,"COC(=O)c1sccc1S(=O)(=O)Nc1ccc(Nc2ccccc2)cc1OC + COc1cc2ncnc(Nc3ccc(Oc4ccccc4)cc3)c2cc1OC [SrcI1] (first compound 5 µM, partner dose 10 µM)",54.6
17,"O=S(=O)(c1ccccc1)N(CC(F)(F)F)c1ccc(C(O)(C(F)(F)F)C(F)(F)F)cc1 + CCCCCCCCCCCC1=C(O)C(=O)C=C(O)C1=O [Embelin] (first compound 7 µM, partner dose 6 µM)",44.2

row,Compound,cell count [%]
1,"N#Cc1c(O)c2c(-c3ccc(-c4ccccc4O)cc3)csc2[nH]c1=O + COc1ccc(-c2ccc3c(N4CCOCC4)nc(N4C[C@@H](C)O[C@@H](C)C4)nc3n2)cc1CO [KU0063794] (first compound 10 µM, partner dose 0.1 µM)",81
2,"COc1ccc2c(c1)CCC1C2CCC2(C)C(NCCCCCCN3C(=O)C=CC3=O)CCC12 (centres undefined) + CC(C)CCN1c2nc(Nc3cc(F)c(O)c(F)c3)ncc2N(C)C(=O)C1C [BID1870] (first compound 2 µM, partner dose 1 µM)",70.8
3,"Oc1cc(-c2nc(-c3ccccc3)[nH]c2-c2ccncc2)ccc1Cl + O=C1NC(=O)/C(=C/c2ccc(-c3ccc(F)cc3O)o2)S1 [AS252424] (first compound 1 µM, partner dose 5 µM)",50.9
4,"COc1ccc2c(c1)CCC1C2CCC2(C)C(NCCCCCCN3C(=O)C=CC3=O)CCC12 (centres undefined) + c1cc(-c2cnn3cc(-c4ccc(OCCN5CCCCC5)cc4)cnc23)ccn1 [Dorsomorphin] (first compound 2 µM, partner dose 2 µM)",69.6
5,"Cn1cc(/C=C2\C(=O)Nc3cccnc32)c2ccccc21 + O=c1cc(-c2cccc3c2Sc2ccccc2S3)oc(N2CCOCC2)c1 [KU55933] (first compound 2 µM, partner dose 5 µM)",73.5
6,"O=S(=O)(c1ccccc1)N(CC(F)(F)F)c1ccc(C(O)(C(F)(F)F)C(F)(F)F)cc1 + O=c1cc(-c2cccc3c2Sc2ccccc2S3)oc(N2CCOCC2)c1 [KU55933] (first compound 7 µM, partner dose 5 µM)",42.2
7,"COc1ccc(COc2ccc(Cc3cnc(N)nc3N)cc2OC)cc1 + Oc1cc(-c2nc(-c3ccccc3)[nH]c2-c2ccncc2)ccc1Cl [L779450] (first compound 5 µM, partner dose 1 µM)",65.3
8,"N#Cc1c(O)c2c(-c3ccc(-c4ccccc4O)cc3)csc2[nH]c1=O + c1cc(-c2cnn3cc(-c4ccc(OCCN5CCCCC5)cc4)cnc23)ccn1 [Dorsomorphin] (first compound 10 µM, partner dose 2 µM)",87.6
9,"Oc1nc(-c2ccc(C(F)(F)F)cc2)nc2c1CSCC2 + COc1cc(N2CCC(N3CCN(C)CC3)CC2)ccc1Nc1ncc(Cl)c(Nc2ccccc2S(=O)(=O)C(C)C)n1 [NVP-TAE684] (first compound 10 µM, partner dose 0.4 µM)",78.5
10,"COc1ccc(-c2ccc3c(N4CCOCC4)nc(N4C[C@@H](C)O[C@@H](C)C4)nc3n2)cc1CO + O=S(=O)(c1ccccc1)N(CC(F)(F)F)c1ccc(C(O)(C(F)(F)F)C(F)(F)F)cc1 [T0901317] (first compound 0.1 µM, partner dose 7 µM)",52.7
11,"COc1ccc(COc2ccc(Cc3cnc(N)nc3N)cc2OC)cc1 + CC(C)CCN1c2nc(Nc3cc(F)c(O)c(F)c3)ncc2N(C)C(=O)C1C [BID1870] (first compound 5 µM, partner dose 1 µM)",71.7
12,"c1cc(-c2cnn3cc(-c4ccc(OCCN5CCCCC5)cc4)cnc23)ccn1 [Dorsomorphin] + CC(C)CCN1c2nc(Nc3cc(F)c(O)c(F)c3)ncc2N(C)C(=O)C1C [BID1870] (first compound 2 µM, partner dose 1 µM)",42.5
13,"N#Cc1c(O)c2c(-c3ccc(-c4ccccc4O)cc3)csc2[nH]c1=O + O=c1cc(-c2cccc3c2Sc2ccccc2S3)oc(N2CCOCC2)c1 [KU55933] (first compound 10 µM, partner dose 5 µM)",76.6
14,"N#Cc1c(O)c2c(-c3ccc(-c4ccccc4O)cc3)csc2[nH]c1=O + CCN(CC)CCCCNc1ncc2cc(-c3cc(OC)cc(OC)c3)c(NC(=O)NC(C)(C)C)nc2n1 [PD173074] (first compound 10 µM, partner dose 0.5 µM)",94.3
15,"Oc1cc(-c2nc(-c3ccccc3)[nH]c2-c2ccncc2)ccc1Cl + Oc1nc(-c2ccc(C(F)(F)F)cc2)nc2c1CSCC2 [XAV939] (first compound 1 µM, partner dose 10 µM)",70
16,"O=S(=O)(c1ccccc1)N(CC(F)(F)F)c1ccc(C(O)(C(F)(F)F)C(F)(F)F)cc1 + Oc1cc(-c2nc(-c3ccccc3)[nH]c2-c2ccncc2)ccc1Cl [L779450] (first compound 7 µM, partner dose 1 µM)",47.9
17,"N#Cc1c(O)c2c(-c3ccc(-c4ccccc4O)cc3)csc2[nH]c1=O + Oc1cc(-c2nc(-c3ccccc3)[nH]c2-c2ccncc2)ccc1Cl [L779450] (first compound 10 µM, partner dose 1 µM)",74.3

# Reference: the supplement of paper PMC4604168 (melanoma cell lines)
